# Where a structure was tested more than once in an assay, its records may differ in their call.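 Single-dose data. Exposure time 48 hours. Values below 10 considered active.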 Certain results were filed several times, with different values. The other results are left out here. The source may hold further records. These are repeated runs of one drug, at its own concentration, as given; each value is one run. Marks such as (2×) stand for listed records that agree.
# System: SNB-75 CNS
# Assay: NCI-60 one-dose screen, 48 h (100 = growth as untreated, 0 = no growth, -100 = all killed)
structure (smiles),measurement,setting,value
COc1cccc2c1C(=O)c1c(O)c3c(c(O)c1C2=O)C[C@@](O)(C(=O)CO)C[C@@H]3OC1CC(N)C(O)C(C)O1 (stereo not given in full),growth,"0.25 µM, runs of 2018","inactive: 18.7 (2×), 12.6, 40.5, 42.1 (3×), 33.1, 33.3, 38.5, 42.8, 49.8, 45.2, 34.2, 36.2, 33.9 (2×), 35.9, 28.2, 33.4, 39, 38.3, 32.9, 36.6, 29.4, 30.8, 31.9, 55.7, 56.3, 23.5, 21.9 (2×), 27.2, 25.8 (2×), 29.3, 29.8, 32.2, 36.9, 28.9, 24.7, 25.9, 17.2, 16.6, 17.8, 21.2, 37.9% and active: 5.6%, 7.57%"
same,growth,"0.25 µM, runs of 2019","inactive: 10.4 (2×), 12.9, 22.2, 24.7 (2×), 18.9 (2×), 23, 12.6 (2×), 34.7, 28.2, 33.5, 16.2, 13.8, 23.8, 26.8, 20.7, 15.1, 20, 22.4, 26.1, 24.3, 15.9, 11.9, 19.1, 15, 22.3, 48.7, 12.3, 29.5% and active: -5.5, 6.52, 4.84, 3.9, 2.42, 3.92, -1.01, 9.56, 5.87, 5.58, 5.75, 8.89, 6.07, -5.2, -0.465%"
same,growth,"0.25 µM, runs of 2020","inactive: 12.7, 59.4, 16.5, 17.2, 14.5, 22.3, 25.5, 33, 29.7, 24.1, 38.7, 43.2, 31.6% and active: 2.94, -1.84, 1.08, -8.03, -8.83, -5.17, -8.06, 8.48, 6.81%"
same,growth,"0.25 µM, runs of 2021","inactive: 27.1, 35.2, 25.6, 26.4, 29.9, 64.8, 65.6, 42.9, 41.5, 27.7, 29.3, 25.9, 23.7, 33.1, 17.9, 15.3, 20.9, 24.1, 20.8, 21.1, 36.2, 36.6, 30.2, 29.4, 47, 40.6, 21.2, 18.8, 33.5, 23.8, 25.2, 24.8, 30.5, 43.9, 37.6, 28.9, 30.7, 19.8, 18.7, 13.5, 24.7, 30.1, 36.1, 62.1, 15.5, 13.1, 24, 42.1% and active: 6.65, 7.2, 8.68, 7.97%"
same,growth,"0.25 µM, runs of 2022","active: 5.26, 7.32, -0.998, -22, -2.32% and inactive: 18.5, 21.6, 14.9, 18.1, 24.5, 12.9, 31.1, 51.3, 37.3, 41.4, 20.7, 51.8, 47.1, 28, 44.7, 58, 45.3, 17.8, 13, 30.6, 40.6%"
same,growth,"25 µM, runs of 1991","active: -74.4, -87.8, -87 (2×), -68.9, -93.8, -66.8, -67.7, -89.9, -69.8, -70, -73.5, -64.3, -52.3, -54.4, -63.9% and inactive: 62.8%"
same,growth,"25 µM, runs of 1992","active: -68.7, -86.6 (2×), -78.3, -56.8, -61.1, -66.6, -86.9, -88.8, -83.8, -73.6, -87.2 (2×), -74, -67.3 (2×), -58.5, -36.5, -69.5, -85.7, -78.8, -80, -86, -90.1 (2×), -89.3, -92.6, -49.8, -84.7, -88.2, -72.7, -59 (3×), -56.3, -24.8, -22.7, -81.5, -86.4, -75.9, -84, -93, -88.9, -94.3, -90.2, -87.8, -72.5, -66, -50.8, -51.8, -75.7 (2×), -85.1 (3×), -86.7, -91.2, -88.6, -85.3, -84.2, -76.2, -70.1, -63.2, -83 (2×), -86.1, -83.2, -79.9, -86.8 (2×), -82.7, -63.1, -58.1, -79.8, -63.4, -47.9, -53.6, -37.2, -98, -93.3, -92.8, -95.9, -82.9, -29.8, -95.3, -79.3, -70.2, -26, -49.2, -30.2, -82.4, -83.7, -32.9, -81.9, -77.2, -77.3, -85.4, -63.6, -76.9, -85.6, -54, -82.8, -50.4, -50.2, -53.7, -94.7, -64, -53, -56, -95.1%"
same,growth,"25 µM, runs of 1993","active: -86.2, -62.2, -63.1, -50, -78.8, -94.9, -88.5, -81.8, -48, -73.5, -97.3, -96.5, -93.8, -59.6, -67.2 (2×), -64.8, -88.4, -86.8, -91.2 (3×), -78.6, -54.2, -89.1, -79.9, -78, -43.9, -78.4, -85.5, -85.6, -74.3, -77.4, -79.6, -70.8, -91.1, -82.4, -100 (2×), -95, -67, -93.6, -36.1, -62.5, -76.9%"
same,growth,"25 µM, runs of 1994","active: -61.4, -81.6, -43.6, -76.2, -59.9, -83.1 (2×), -90.3, -93, -57.1, -91.1, -56, -55.3, -86, -79.5, -52.1, -75.1, -53, -97.4, -67.4, -96.7, -86.2, -53.3, -82.5, -50.5, -80.5%"
same,growth,"25 µM, runs of 1995","active: -54.3, -78.9, -77.5, -10.9, -46.3, -78, -90.6, -61, -60.2, -67.1, -50.4, -60.9, -71.4, -89.4, -81.8, -84.6, -92, -70.7, -90.2, -94.7, -69.8, -56.2, -66.1, 4.21, -52.8, -72.4, -62.4, -65.4, -79.5, -27.5, -37.1, -69.4, -57.2%"
same,growth,"25 µM, runs of 1996","active: -78.5, -51.7, -21.3, -48.9, -59.6, -24.9, -37.3, -50, -66, -29.2, -43.6, -60.3, -68.3, -49.2, -64.5, -80.7, -79.7, -35, -54.6, -78.2, -78.8, -75.3, -79.2, -41.7, -45.4, -43.4, -34.6, -76.2 (2×), -66.6, -60.2, -48, -37, -56.2, -70.1, -89.4, -58.3, -95.7, -66.2, -75.7, -50.1, -48.5, -77.3 (2×), -75, -86.6, -30.3, -45.1, -26.5, -81.9, -92.9, -68.8, -59.5, -33.3% and inactive: 81.2%, 55%"
same,growth,"25 µM, runs of 1997","active: -41.9, -38.2, -76.1, -44.3, -63.2, -51.9, -71.2, -82.2, -83.5, -81.7 (3×), -78.5, -87.2, -66, -64.3, -54.3, -82.9, -79.4, -91.3, -67.5, -78.8 (2×), -70.5, -73.7, -46.3, -80.3, -73.9, -77.7, -81.9, -82.5, -67.8, -68.2, -59.3, -95.3, -79.1, -83.9, -89.7, -78.4%"
same,growth,"25 µM, runs of 1998","active: -86.3, -73.9, -80.3, -47.8, -92.2, -72.2, -95.3, -97.4, -71.3, -63, -70.4, -81.5, -36.1, -61.1, -81.7, -90.2, -69, -42.4, -81.8, -72.1%"
same,growth,"25 µM, runs of 1999","active: -84, -53.5, -17.7, -70.7, -58.9, -80.3, -69.8, -72.9, -89.2, -85.9, -7.26, -23, -65.4, -100, -76%"
same,growth,"25 µM, runs of 2000","active: -42.5, -100, -66.1, -81.2%"

# — PubChem BioAssay (NCI)
